# Experimental data from PubChem BioAssay (NCATS).
# Where “and” joins values, the source holds several entries; their conditions need not be identical. Identical values can stand only once. Inconclusive results, whose numbers are uncertain, are shown with a selection of clear calls. For some of these results: Where the call is inconclusive, the potency comes from a doubtful curve fit. Calls of active or inactive are those of the source. The call rests on the fitted dose curve; in most records, active means well fitted curve in the direction sought with a large enough effect; inconclusive means small, poorly fitted or top-dose-only effect, or another doubt; inactive means no such curve, though single readings can be large; an effect the other way counts as inactive or inconclusive.
# Key:
# [1] = qHTS for Inhibitors of Plasmodium falciparum (CP250) proliferation (AID 504320);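 further: plate controls were DMSO vehicle for no effect and 0.29 µM artemisinin control for full effect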
# Outline: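 Erythrocytes infected with P. falciparum line (0.3% parasitemia, 2.5% hematocrit final) incubated with compounds 72 h at 37 °C, 5% CO2; SYBR Green lysis buffer added, fluorescence read next day. Normalized to 0.29 uM artemisinin and DMSO.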
# [2] = target: Pyruvate kinase (Leishmania mexicana) (UniProt Q27686); assay: qHTS Validation Assay for Activators of Leishmania Mexicana Pyruvate Kinase (AID 959)
# Chain of UniProt Q27686 (Q27686 whole entry, looked up): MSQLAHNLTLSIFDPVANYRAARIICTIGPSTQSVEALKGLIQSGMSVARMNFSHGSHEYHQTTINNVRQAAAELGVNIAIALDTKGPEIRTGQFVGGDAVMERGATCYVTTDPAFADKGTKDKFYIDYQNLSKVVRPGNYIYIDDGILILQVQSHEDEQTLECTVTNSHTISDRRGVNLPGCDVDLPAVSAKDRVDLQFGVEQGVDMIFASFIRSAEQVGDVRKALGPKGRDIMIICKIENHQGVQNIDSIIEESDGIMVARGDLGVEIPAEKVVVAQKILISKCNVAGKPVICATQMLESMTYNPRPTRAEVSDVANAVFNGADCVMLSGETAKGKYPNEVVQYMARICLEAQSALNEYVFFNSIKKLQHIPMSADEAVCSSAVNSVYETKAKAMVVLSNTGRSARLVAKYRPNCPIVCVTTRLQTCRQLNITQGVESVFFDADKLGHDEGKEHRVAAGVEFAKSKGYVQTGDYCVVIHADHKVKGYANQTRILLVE
# Outline: (§1)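 Read-out: luminescence from PKLight stop/detection reagent, data normalized to DMSO. Reaction: 0.2 nM E451W LmPYK, 0.5 mM PEP, 0.1 mM ADP, pH 7.2, 1 h room temperature.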
# [3] = target: Cytochrome P450 2D6 (Homo sapiens) (UniProt P10635); assay: qHTS Assay for Inhibitors and Substrates of Cytochrome P450 2D6 (AID 891);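 further: luciferin methyl ether substrate demethylated by CYP2D6 with NADPH regeneration; nearly all actives have a fitted effect of over 60% in size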; further: potency means the concentration at half of the fitted maximal effect; on activity change, negative = inhibition: top concentration of the series differs between compounds; on the % scale 0 is the no-effect control and ±100 the full control effect
# Chain of UniProt P10635 (P10635 whole entry, looked up): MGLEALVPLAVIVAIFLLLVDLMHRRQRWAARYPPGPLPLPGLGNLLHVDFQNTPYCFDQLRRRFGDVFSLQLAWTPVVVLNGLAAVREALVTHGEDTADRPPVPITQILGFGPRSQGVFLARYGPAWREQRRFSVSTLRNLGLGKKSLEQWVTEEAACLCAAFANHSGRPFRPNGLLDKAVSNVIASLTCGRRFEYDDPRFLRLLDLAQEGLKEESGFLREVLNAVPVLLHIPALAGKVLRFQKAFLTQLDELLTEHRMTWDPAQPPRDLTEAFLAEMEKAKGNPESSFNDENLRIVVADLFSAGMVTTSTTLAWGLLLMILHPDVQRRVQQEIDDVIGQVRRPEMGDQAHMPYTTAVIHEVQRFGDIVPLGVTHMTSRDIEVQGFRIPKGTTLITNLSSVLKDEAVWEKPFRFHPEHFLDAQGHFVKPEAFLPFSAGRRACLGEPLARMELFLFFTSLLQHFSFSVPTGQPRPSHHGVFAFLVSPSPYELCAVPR
# Outline: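 Human CYP2D6 (5 nM) with 30 uM Luciferin-ME EGE (at Km) in 100 mM KPO4, compound preincubated 10 min, then NADPH regeneration system for 60 min at room temperature. Luciferin read by luminescence; normalized to 1.43 uM quinidine.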
# [4] = target: Pyruvate kinase (Leishmania mexicana) (UniProt Q27686); assay: qHTS Validation Assay for Inhibitors of Leishmania Mexicana Pyruvate Kinase (AID 945); further: potency means the concentration at half of the fitted maximal effect;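 on activity change, negative = inhibition: 0% = DMSO only neutral control wells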
# Outline: as §1
# [5] = Validation screen for small molecules that induce DNA re-replication in SW480 colon adenocarcinoma cells (AID 504364); further: potency means the concentration at half of the fitted maximal effect
# Outline: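 250 cells/well; compound pinned in; 48 hr, 37 C, 5% CO2; Hoechst added, 40 min; nuclear fluorescence imaged, 405 ex / 500-530 em; re-replication scored as increase in high-intensity nuclei.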
# [6] = target: phosphoglycerate mutase (Leishmania major) (UniProt Q4Q090); assay: qHTS Validation Assay to Find Inhibitors of Phosphoglycerate Mutase (AID 504548); conditions: Potency: inhibition qHTS; further: potency means the concentration at half of the fitted maximal effect
# Outline: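 Inhibition of L. major PGAM was assessed by Kinase-GloPlus luminescence following a 45-minute room-temperature reaction with enzyme at 1.25nM final.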
# [7] = Counterscreen qHTS for small molecule stabilizers of the endoplasmic reticulum resident proteome: GLuc-NoTag assay (AID 1508627); further: potency means the concentration at half of the fitted maximal effect
# Outline: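 SH-SY5Y cells stably expressing constitutively secreted GLuc without SERCaMP tag, exposed to compound for 19 hr, then to 100 nM thapsigargin for 4 hr at 37C. Medium luciferase was read by coelenterazine luminescence without lysis.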
# [8] = target: Guanine nucleotide-binding protein G(i) subunit alpha-1 (Homo sapiens) (UniProt P63096); assay: qHTS Assay for Inhibitors of RGS12 GoLoco Motif Activity (Green Fluorophore) (AID 879); further: potency means the concentration at half of the fitted maximal effect
# Chain of UniProt P63096 (P63096 whole entry, looked up): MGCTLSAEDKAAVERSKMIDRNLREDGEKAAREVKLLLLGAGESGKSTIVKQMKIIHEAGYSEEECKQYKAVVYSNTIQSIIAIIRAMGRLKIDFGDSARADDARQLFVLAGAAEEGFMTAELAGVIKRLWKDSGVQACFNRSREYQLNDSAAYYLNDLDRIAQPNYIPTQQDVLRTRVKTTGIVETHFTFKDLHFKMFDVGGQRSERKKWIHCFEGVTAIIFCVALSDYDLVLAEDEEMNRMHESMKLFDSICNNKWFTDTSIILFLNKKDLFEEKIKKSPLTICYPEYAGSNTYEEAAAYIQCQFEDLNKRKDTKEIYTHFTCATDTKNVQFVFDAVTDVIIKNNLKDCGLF
# Outline: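 Fluorescence polarization assay: 50 nM Gαi1 with 10 nM FITC-labeled RGS12 GoLoco peptide in 10 mM Tris pH 7.5, 150 mM NaCl, 0.1 mM GDP, 0.05% NP40, 10 min at room temperature with compound.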
# [9] = target: Cytochrome P450 3A4 (Homo sapiens) (UniProt P08684); assay: qHTS Assay for Inhibitors and Substrates of Cytochrome P450 3A4 (AID 884); conditions: recombinant CYP3A4, Luciferin-PPXE luminescence; activity change, negative = inhibition: at 57.1 µM (top of the series); further: nearly all actives have a fitted effect of over 50% in size; further: potency means the concentration at half of the fitted maximal effect; on activity change, negative = inhibition: on the % scale 0 is the no-effect control and ±100 the full control effect
# Chain of UniProt P08684 (P08684 whole entry, looked up): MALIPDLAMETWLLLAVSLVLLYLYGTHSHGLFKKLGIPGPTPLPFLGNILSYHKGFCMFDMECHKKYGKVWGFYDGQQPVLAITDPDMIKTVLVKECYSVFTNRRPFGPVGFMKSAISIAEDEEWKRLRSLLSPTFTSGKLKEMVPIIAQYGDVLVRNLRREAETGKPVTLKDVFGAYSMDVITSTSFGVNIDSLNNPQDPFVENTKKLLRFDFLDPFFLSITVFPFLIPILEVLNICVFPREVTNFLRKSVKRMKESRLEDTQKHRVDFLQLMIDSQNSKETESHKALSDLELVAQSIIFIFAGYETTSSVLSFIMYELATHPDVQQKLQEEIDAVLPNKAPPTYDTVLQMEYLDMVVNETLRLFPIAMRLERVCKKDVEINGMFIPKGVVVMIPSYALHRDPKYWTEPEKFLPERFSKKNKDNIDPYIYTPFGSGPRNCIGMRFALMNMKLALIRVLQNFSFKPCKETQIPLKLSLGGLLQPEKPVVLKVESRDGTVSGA
# Outline: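 20 nM human CYP3A4 with 25 uM Luciferin-PPXE (at KM) in 200 mM KPO4, preincubated 10 min with compound; NADPH regeneration started a 60 min RT reaction. Luciferin detected by luminescence, normalized to 57 uM ketoconazole as full inhibition.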
# [10] = target: Ubiquitin carboxyl-terminal hydrolase 2 (Homo sapiens) (UniProt O75604); assay: qHTS Validation Assay for Inhibitors of Ubiquitin-specific Protease USP2a Using CHOP2 as the Reporter (AID 463106); further: potency means the concentration at half of the fitted maximal effect
# Chain of UniProt O75604 (O75604 whole entry, looked up): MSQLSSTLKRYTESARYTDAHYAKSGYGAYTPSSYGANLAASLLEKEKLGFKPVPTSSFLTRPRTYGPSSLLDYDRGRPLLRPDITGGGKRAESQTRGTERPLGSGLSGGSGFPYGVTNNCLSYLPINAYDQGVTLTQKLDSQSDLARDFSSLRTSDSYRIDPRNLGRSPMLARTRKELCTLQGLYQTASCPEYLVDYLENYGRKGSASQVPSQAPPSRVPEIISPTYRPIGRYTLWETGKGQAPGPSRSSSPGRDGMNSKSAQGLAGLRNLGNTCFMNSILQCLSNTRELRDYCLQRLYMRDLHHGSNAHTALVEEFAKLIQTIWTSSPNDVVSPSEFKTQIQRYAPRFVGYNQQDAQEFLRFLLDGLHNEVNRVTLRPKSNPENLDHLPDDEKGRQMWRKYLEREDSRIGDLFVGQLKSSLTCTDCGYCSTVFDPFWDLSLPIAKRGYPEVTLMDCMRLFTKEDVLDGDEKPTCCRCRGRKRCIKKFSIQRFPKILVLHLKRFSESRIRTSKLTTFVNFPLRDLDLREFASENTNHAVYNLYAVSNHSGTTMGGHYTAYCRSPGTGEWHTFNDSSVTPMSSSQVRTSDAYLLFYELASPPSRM
# Outline: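 USP2 core (10 nM final) was preincubated with compound 30 min at RT in pH 8.0 Tris/CaCl2/beta-ME/CHAPS buffer. Ub-CHOP2 and reporter substrate (25 nM final each) were then added, with fluorescence (Ex 485/Em 531) read after 60 min. Data were normalized to NEM full inhibition and fitted to concentration-response curves.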
# [11] = target: Metallo-beta-lactamase type 2 (Klebsiella pneumoniae) (UniProt C7C422); assay: qHTS to identify inhibitors of the New Delhi Metallo-beta-lactamase (NDM): assay validation screen against the NCATS LOPAC Collection (AID 1794843); further: potency means the concentration at half of the fitted maximal effect;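 on activity change, negative = inhibition: nitrocefin turnover by NDM-1 measured as 485 nm absorbance at plateau; on the % scale 0 is the no-effect control and ±100 the full control effect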
# Chain of UniProt C7C422 (C7C422 whole entry, looked up): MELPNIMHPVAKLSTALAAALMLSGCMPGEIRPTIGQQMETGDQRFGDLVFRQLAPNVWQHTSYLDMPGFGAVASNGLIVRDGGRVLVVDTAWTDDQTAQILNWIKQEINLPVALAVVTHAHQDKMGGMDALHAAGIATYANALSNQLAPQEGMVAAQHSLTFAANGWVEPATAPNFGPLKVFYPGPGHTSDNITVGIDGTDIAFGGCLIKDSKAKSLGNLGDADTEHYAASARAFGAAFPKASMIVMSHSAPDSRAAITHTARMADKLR
# Outline: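 Nitrocefin hydrolysis (50 uM substrate stock) by NDM-1, 2 nM final, was followed by 485 nm absorbance after compound preincubation; buffer was 50 mM HEPES pH 7.0, 1 uM ZnSO4, 0.01% Tween20.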
# [12] = qHTS assay to identify inhibitors of the type 1 interferon - major histocompatibility complex class I in skeletal muscle: Counter screen cell viability and HiBit confirmation (AID 1347412); conditions: iHSKM muscle cells + IFN-b, HiBiT or CellTiter-Glo, 24 h; further: nearly all actives have a fitted effect of over 60% in size; further: potency means the concentration at half of the fitted maximal effect
# Outline: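 After 24 h with human IFN-beta (4 ng/ml) and compound titrations (top 46 uM final, 1:3, 12 points), HLA-B HiBit myoblasts were lysed for either Nano-Glo HiBiT luminescence or CellTiter Glo viability on paired plates.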
# [13] = Primary qHTS for inhibitors of nuclear receptor binding SET domain protein 2 (NSD2) in an RCH-ACV wild type WT cells (2C) (AID 1645877); conditions: activity change, negative = cell killing: at 44.9 µM (top of the series) unless noted; further: nearly all actives have a fitted effect of over 70% in size; on activity change, negative = cell killing: on the % scale 0 is the no-effect control and ±100 the full control effect
# [14] = qHTS of Nrf2 Activators: LOPAC Validation (AID 624149); further: 0% is about no effect
# Outline: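 Luminescence read-out of ARE-luciferase activation: AREc32_Fluc cells treated with compounds for 24 hr at 37 deg C, then lysed with Steady-Glo for 30 min at room temperature before reading.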
# [15] = target: Rap guanine nucleotide exchange factor 3 (Homo sapiens) (UniProt O95398); assay: Confirmatory qHTS for antagonist of cAMP-regulated guanine nucleotide exchange factor 3 (EPAC1) (AID 1645880); further: potency means the concentration at half of the fitted maximal effect; nearly all actives have a fitted effect of over 55% in size
# Chain of UniProt O95398 (O95398 whole entry, looked up): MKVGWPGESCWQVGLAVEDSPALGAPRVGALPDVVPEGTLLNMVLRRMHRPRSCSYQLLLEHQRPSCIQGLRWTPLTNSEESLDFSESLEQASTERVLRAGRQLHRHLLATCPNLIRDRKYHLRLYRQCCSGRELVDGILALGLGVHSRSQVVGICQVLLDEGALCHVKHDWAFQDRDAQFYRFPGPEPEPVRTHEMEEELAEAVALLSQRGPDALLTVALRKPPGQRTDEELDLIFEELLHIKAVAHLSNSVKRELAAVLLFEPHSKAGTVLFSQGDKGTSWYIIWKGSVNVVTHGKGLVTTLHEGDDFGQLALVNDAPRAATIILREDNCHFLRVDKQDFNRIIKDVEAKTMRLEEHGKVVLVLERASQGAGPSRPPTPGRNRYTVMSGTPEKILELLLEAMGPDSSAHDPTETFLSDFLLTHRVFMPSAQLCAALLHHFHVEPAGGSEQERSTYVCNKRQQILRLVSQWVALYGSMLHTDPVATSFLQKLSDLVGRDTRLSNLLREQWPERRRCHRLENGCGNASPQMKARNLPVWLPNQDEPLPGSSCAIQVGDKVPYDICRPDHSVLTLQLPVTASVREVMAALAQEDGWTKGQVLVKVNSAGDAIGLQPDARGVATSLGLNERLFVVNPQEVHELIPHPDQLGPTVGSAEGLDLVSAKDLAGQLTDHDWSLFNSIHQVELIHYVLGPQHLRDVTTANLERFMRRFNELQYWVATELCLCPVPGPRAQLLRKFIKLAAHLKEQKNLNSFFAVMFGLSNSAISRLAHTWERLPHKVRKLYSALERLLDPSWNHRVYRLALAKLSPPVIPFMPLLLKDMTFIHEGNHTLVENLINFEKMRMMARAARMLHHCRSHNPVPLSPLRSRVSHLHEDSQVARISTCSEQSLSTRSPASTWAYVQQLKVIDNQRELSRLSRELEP
# Outline: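 Nucleotide exchange uses 100 nM EPAC1, 250 nM RAP1B-BODIPY-GDP and 50 uM GDP, with compounds in a concentration-titration series. After 5 min at room temperature, fluorescence (480 nm ex/540 nm em) is read every 5 min for 30 min. Data are normalized to control ATA and DMSO.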
# [16] = target: Rap guanine nucleotide exchange factor 4 (Homo sapiens) (UniProt Q8WZA2); assay: Confirmatory qHTS for antagonist of cAMP-regulated guanine nucleotide exchange factor 4 (EPAC2) (AID 1645885); further: potency means the concentration at half of the fitted maximal effect; nearly all actives have a fitted effect of over 25% in size
# Chain of UniProt Q8WZA2 (Q8WZA2 whole entry, looked up): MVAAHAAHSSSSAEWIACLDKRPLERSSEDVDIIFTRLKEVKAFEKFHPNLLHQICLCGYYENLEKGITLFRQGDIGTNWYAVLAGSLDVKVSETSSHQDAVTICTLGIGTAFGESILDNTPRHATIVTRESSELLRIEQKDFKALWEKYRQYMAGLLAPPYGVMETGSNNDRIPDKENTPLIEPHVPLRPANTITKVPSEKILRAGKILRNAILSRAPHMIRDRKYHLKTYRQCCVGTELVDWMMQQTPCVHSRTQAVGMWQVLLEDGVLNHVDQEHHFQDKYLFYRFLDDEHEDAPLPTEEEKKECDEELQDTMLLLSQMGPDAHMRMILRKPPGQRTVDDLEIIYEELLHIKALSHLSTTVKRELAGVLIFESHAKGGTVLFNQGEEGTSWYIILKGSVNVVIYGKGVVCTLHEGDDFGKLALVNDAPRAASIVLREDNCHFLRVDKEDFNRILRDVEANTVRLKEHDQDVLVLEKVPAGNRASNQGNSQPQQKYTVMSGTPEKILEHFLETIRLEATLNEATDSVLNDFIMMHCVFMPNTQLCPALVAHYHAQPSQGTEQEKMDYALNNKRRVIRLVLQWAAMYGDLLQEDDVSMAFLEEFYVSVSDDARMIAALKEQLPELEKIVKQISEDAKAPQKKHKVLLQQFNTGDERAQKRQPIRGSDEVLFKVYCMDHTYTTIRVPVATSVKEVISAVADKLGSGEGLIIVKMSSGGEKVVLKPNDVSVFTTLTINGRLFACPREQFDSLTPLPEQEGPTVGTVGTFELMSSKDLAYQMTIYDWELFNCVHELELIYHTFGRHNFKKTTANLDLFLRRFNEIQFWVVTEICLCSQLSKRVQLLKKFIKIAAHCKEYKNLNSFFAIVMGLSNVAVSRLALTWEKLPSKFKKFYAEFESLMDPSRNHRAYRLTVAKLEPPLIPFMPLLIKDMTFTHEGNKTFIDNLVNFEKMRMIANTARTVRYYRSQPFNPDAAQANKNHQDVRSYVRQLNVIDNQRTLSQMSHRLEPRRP
# [17] = system: Zika virus NS2B-NS3 protease (linked); assay: 384 well plate NINDS AMC confirmatory qHTS for Zika virus inhibitors (AID 1347163); further: potency means the concentration at half of the fitted maximal effect; nearly all actives have a fitted effect of over 50% in size
# Outline: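 Linked NS2B-NS3 protease (final 5 nM, 30 nM or 60 nM) was preincubated with compounds (final up to 1 mM) for ~15 minutes. Ac-VKTGKR-AMC substrate (final 30 microM) then reacted for 25 minutes at room temperature in the dark. Fluorescence (ex 355/em 460 nm) was normalized to no-enzyme and no-inhibitor controls.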
# [18] = target: Cytochrome P450 2C19 (Homo sapiens) (UniProt P33261); assay: qHTS Assay for Inhibitors and Substrates of Cytochrome P450 2C19 (AID 899); conditions: recombinant CYP2C19, luciferin-H EGE luminescence; activity, negative = inhibition: at 57.1 µM (top of the series); further: top concentration of the series differs between compounds; on the % scale 0 is the no-effect control and ±100 the full control effect; nearly all actives have a fitted effect of over 60% in size
# Outline: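 Signal comes from luciferase acting on luciferin released by CYP2C19-mediated hydroxylation of Luciferin-H EGE, 10uM (KM). Assay mix: 5nM enzyme, 50mM KPO4; 60 min at 37C with NADPH regeneration. Data normalized against 57uM ketoconazole.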
# Tags describe the fitted curve by direction and shape or compound fluorescence and quenching.
structure (smiles),measurement,setting,value
CC1(OC(=O)C2CCCC2)C(=O)C=C2C=C3CCCCN3C=C2C1=O (stereo not drawn),Potency,[1],inactive
COC(=O)CC=C1c2ccc(OC)cc2[C@@H](OC)[C@@H]1C,Potency,[1],inactive
C[C@@H]1CC[C@H]2C(=O)N(Cc3cccc([N+](=O)[O-])c3)C[C@@H](O)CN2[C@@H]1c1cccc(Br)c1,Potency,[1],inactive
NS(=O)(=O)c1cccc2c1c([N+](=O)[O-])cc1nc(O)c(O)nc12,Potency,[2],"inconclusive: 15.8 µM [activator, partial curve]"
C=CCC1(c2ccccc2)Oc2ccccc2-c2nc3cc(Cl)c(Cl)cc3nc21 (stereo not drawn),"activity change, negative = inhibition",[3],inactive: 2.78% [at 11.4 µM] and inactive: 6.33% [at 11.4 µM]
same,Potency,[1],inactive
O=C(O)c1cc2cc(Cc3cccnc3)ccc2o1,Potency,[4],"inconclusive: 25.1 µM [inhibitor, partial curve]"
CCCCOC(=O)NS(=O)(=O)c1sc(CC(C)C)cc1-c1ccc(Cn2c(CC)nc3c(C)cc(C)nc32)cc1,Potency,[5],"inconclusive: 18.4 µM [activator, single point]"
same,Potency,[6],"inconclusive: 0.0135 µM [inhibitor, partial curve, poor fit]"
same,Potency,[7],"inconclusive: 0.562 µM [inhibitor, full curve, poor fit]"
O=C(O)C1=CC(=C(c2ccc(O)c(C(=O)O)c2)c2ccc(O)c(C(=O)O)c2)C=CC1=O,Potency,[8],active: 15.8 µM
same,Potency,[9],inactive
same,Potency,[10],active: 1.04 µM
same,Potency,[6],"inconclusive: 30.1 µM [inhibitor, single point]"
same,Potency,[11],active: 1.26 µM
Nc1ccc(-c2nc3ccc(-c4nc5ccc(N)cc5[nH]4)cc3[nH]2)cc1,Potency,[4],"inconclusive: 20 µM [inhibitor, partial curve]"
same,Potency,[10],"inconclusive: 14.7 µM [falling, single point]"
N[C@@H](CCC(=O)N[C@H](CSN=O)C(=O)NCC(=O)O)C(=O)O,Potency,[11],"inconclusive: 0.708 µM [inhibitor, full curve, poor fit]"
Nc1ccc2c3c(cccc13)C(=O)NC2=O,Potency,[8],active: 0.794 µM
same,Potency,[9],"inconclusive: 3.16 µM [inhibitor, full curve]"
same,Potency,[4],inactive
same,Potency,[10],"inconclusive: 14.7 µM [fluorescent, partial curve]"
Cn1c(=O)c(-c2c(Cl)cccc2Cl)cc2cnc(Nc3ccc(N4CCOCC4)cc3)nc21,Potency,[12]; HiBiT,"inconclusive: 2.22 µM [inhibitor, partial curve]"
same,Potency,[12]; Viability,"inconclusive: 0.442 µM [cytotoxic, full curve, poor fit]"
O=C(O)c1cc2cc(F)ccc2[nH]1,Potency,[11],inactive
O=C(CS(=O)Cc1ccco1)NC/C=C\COc1cc(CN2CCCCC2)ccn1 (stereo not drawn),Potency,[13],inactive
COc1cc(/C=C(\C#N)C(=O)c2ccc(O)c(O)c2)cc(I)c1O,Potency,[2],active: 15.8 µM
same,Potency,[10],active: 14.7 µM
same,Potency,[7],"inconclusive: 39.8 µM [inhibitor, single point]"
CC(=O)OCC(=O)[C@@]1(O)CC[C@H]2[C@@H]3CCC4=CC(=O)CC[C@]4(C)[C@H]3C(=O)C[C@@]21C,Potency,[14],inactive
same,Potency,[13],inactive
CNc1ncnc2c1ncn2[C@H]1C[C@H](OP(=O)(O)O)[C@@H](COP(=O)(O)O)O1,Potency,[11],inactive
COC(=O)C1=C(C)NC(C)=C([N+](=O)[O-])C1c1ccccc1C(F)(F)F (stereo not drawn),Potency,[15],"inconclusive: 53.6 µM [inhibitor, partial curve]"
same,Potency,[16],"inconclusive: 37.9 µM [inhibitor, partial curve]"
CC1CCN(CC[C@H]2CCCN2S(=O)(=O)c2cccc(O)c2)CC1,Potency,[3],"inconclusive: 7.94 µM [inhibitor, full curve, poor fit]"
O=C(NOCC1CC1)c1cc(Br)c(F)c(F)c1Nc1ccc(I)cc1Cl,Potency,[17],active: 44.7 µM
same,Potency,[12]; HiBiT,"inconclusive: 27.9 µM [inhibitor, partial curve]"
same,"activity change, negative = inhibition","[12]; Viability, at 45.9 µM (top of the series)",inactive: -18.5%
CC(C)NCC(O)COc1ccc(CC(N)=O)cc1 (stereo not drawn),Potency,[5],inactive
CC(C)(CO)Cc1cc(C(C)(C)C)c(O)c(C(C)(C)C)c1,"activity, negative = inhibition",[18],inconclusive: -49.6% [inhibitor]
same,Potency,[15],"inconclusive: 44.4 µM [inhibitor, partial curve]"
same,Potency,[16],active: 49.4 µM
O=c1cc(O)cc(/C=C/c2ccc(O)c(O)c2)o1,Potency,[7],"inconclusive: 44.7 µM [inhibitor, partial curve, poor fit]"
